Test results: the RNAGym collection of RNA variant scans (doi:10.7554/elife.90254)
Read counts are not given, so values of variants with three or more changes are uncertain.

B1: OR4K15 (parent)
chain: GUUAACGGUCAUAGGCCAUGGAAACUAGGAGCACCAUUUCGCUGCCAGUGAAGAAAUGAACAAAGAAAAUCUGGGCCAGGCAGGCAUCAAAAGAAAUAGUCUUGCGCUCAACCAGAAAGUCUGUAAUCAUUUUAAGGGUA

Variants of: B1
Test: self-cleavage, relative activity (ratio to wild type); higher = more cleavage; in vitro, sequencing; the parent is a self-cleaving ribozyme

| Variant | self-cleavage |
| --- | --- |
| GUUAACGGUCAUAGGCCAUGGAACCUAGGAGCACCAUUUCGCUGCCAGUGAAGAAAUGAACAAAGAAAAUCUGGGCCAGGCAGGCAUCAAAAGAGAUAGUCUUGAGCUCAACCAGAAAGUCUGUAAUCAUUUUAAGGGUA [A24C A95G C105A] | 0.05 |
| GUUAACGGUCAUAGGCCAUGGAGACUAGGAGCACCAUUUCGCUGCCAGUGAAGAAGUGAACAAAGAAAAUCUGGGCCUGGCAGGCAUCAAAAGAAAUAGUCUUGCGCUCAACCAGAAAGUCUGUAAUCAUUUUAAGGGUA [A23G A56G A78U] | 0.65 |
| GUUGACGGUCUUAGGCCAUGGAAACUAGGAGCACCAUUUCGCUGCCAGUGAAGAAAUGAACAAAGAAAAUCUGGGCCAGGCAGGCAUCAAAAGAAAUAGUCUCGCGCUCAACCAGAAAGUCUGUAAUCAUUUUGAGGGUA [A4G A11U U103C A134G] | 0.5 |
| GUUAACGGUCAUAGGCCACGGAAACUAGGAGCACCACUUCGCCGCCAGUGAAGAAAUGAACAAAGAGAAUCUGGGCCAGGCAGGCAUCAAGAGAAAUGGUCUUGCGCUCAACCAGAAAGUCUGUAAUCAUUUUAAGGGUA [U19C U37C U43C A67G A91G A98G] | 0.83 |
| GUUAACGGUCAUAGGCCAUGGAUACUAGGAGCACCAUUUCGCUGCCAGUGAAGAAAUGAACAGAGAAAAUCUGGGCCAGGCAGGCAUCAAAAGAAAUAGUCUUGCGCCCAACCAGAAAGUCUGUAAUCAUUUUAAGGGUA [A23U A63G U108C] | 0.02 |
| GUUAACGGUCAUAGGCCAUGGAAACUAGGAGCACCAUUUCGCUGCCAGUGAAGAAAUGAACAAAGAAAAUCUGGGGCAGGCAGGCAUCAGAAGAAAUAGUCUUGCUCUCAACCAGAAAGUCUGUAAUCAUUUUAAGGGAA [C76G A90G G106U U139A] | 0.01 |
| GUUAACGGUCAUAGGCCAUGGAAACUAGGAGCACCAUUUCGCUGCCAGCGAAUAAGCGAACAAAGAAAAUCUGGGCCAGGCAGGCAUCAAAAGAAAUAGUCUUGCGCUCAACCAGAAAGUCUGUAAUCAUUUUAGGGGUA [U49C G53U A56G U57C A135G] | 0.92 |
| GUUAACGGUCAUAGGCCAUGGAAACUAGGAGCACCAUUUCGCUGCCAGUGAAGAAAUGAACAAAGAAAAUCUGGGCCCGGCAGGCGUCUAAAGAAAUAGUCUUGCGCUCAACCAGAAGGUCUGUAAUCAUUUUAAGGGUA [A78C A86G A89U A118G] | 0.1 |
| GUUAACGGUCAUAGGCCAUGGAAACUAGGAGCUCCAUUUCGCUGCCAGCGAAGAAAUGAACGAGGAAAAUCUGGGCCAGGCAGGCAUCAAAAGAAAUAGUCUUGCGCUCAACCAGAAAGACUGUAAUCAUUUUAAGGGUA [A33U U49C A62G A64G U120A] | 1.17 |
| GUUAACGGUCAUAGGCCAUGGAAACUAGGAGCACCAUUUCGCUGCCAGUGAAGAAAUGAACAAAGAAAAUCUGGGCCUGGCGGGCAUCAAAAGAAAUAGUCUUGCGCUCAACCAGAAAGUCUGUAACCAUUCUAAGGGUA [A78U A82G U127C U132C] | 0.04 |
| GUUAACGGUCAUAGGCCAUGGUAACUAGGAGCACCAUUUCGCUGCCAGUGAAGGAAUGAACAAAGAAAACCUGGGCCAGGCAGGCAUCAAAAGAAAUAGUCUUGCGCUCAACCAGAAGGUCUGUAAUCAUUUUAAGGGUA [A22U A54G U70C A118G] | 0.28 |
| GUUAGCGGUCAUAGGCCAUGGAAACUUGGAGCACCAUUUCGCUGCCAGUGAAGAAAUGAACAAAGAAAAUCUGGGCCAGGCGGGCAUCAAAGGAAAUAGUCUUGCGCUCAACCAGAAAGUCUGUAAUCAUUUUAAGGGUA [A5G A27U A82G A92G] | 0.98 |
| GUUAACGGUCAUAGGCCAUGGGAACUAGGAGCACCCUUUCGCUGCCAGUGAAGAAAUGAACAAAGAAAAUCUGGGCCAGGCAGGCAUCAAAAGAAAUAGUCUUGCGCUCAACCAGAAAGUCCGUAAUCAUUUUAAGGGUA [A22G A36C U122C] | 1.39 |
| GUUAACGGUCAUGGGCCAUGGAAACUAGGAGCACCAUUUCGCUGCCAGUGAAGAAAUGAACAAAGAAAUUCUGGGCCUGGCAGGCAUCAAAAGAAAUAGUCUUGCGCUCAACCAGAAGGUCUGUAAUCAUUUUAAGGGUA [A13G A69U A78U A118G] | 0.24 |
| GUUAGCGGUCAUAGGCCAUGGAGACUAGGAGCACCAUUUCGCUGCCAGUGAAGAAAUGAACAAAGAAAAUCUGGGCCAGGCAGGCACCAAAAGAAAUAGUCUUGCGCUCAGCCAGAAAGUCUGUAACCUUUUUAAGGGUA [A5G A23G U87C A111G U127C A129U] | 0.02 |
| GUUAACGGUCAUAGGCCAUGGAAACUAGGGGCACCAUUUCGCUGCCAGUGAAGAAAUGAACAAAGAAAAUCUGGGCCAGGCAGGCAUCAAAAGAAAUAGUCAUGCGCUCAACCAGGAAGUCUGUAAUCAUUUUAAGGGUA [A30G U102A A116G] | 0.23 |
| GUUAACGGUCAUAGGCCAUGGAAACUAGGAGCACCAUUUCGCUGCCAGUGAAGAAAUGAACAAAGAAAAUCUGGGCCAGGCUGGCAUCGAAAGAAAUAGUCUUGCGCUCAACCAGAAAGUCUGUAUUCAUUUUAAGGGUA [A82U A89G A126U] | 0.09 |
| GUUAACGGUCAUAGGCCAUGGAAACUAGGAGCACCAUUUCGCUGCCAGUGAAGAGAUGAACAAAGAAAAUCUGGGCCAGGCAGGCAUCAAAAGAAAUAGUCUUGCGCUCAACCAGAUAGUAUGUAAUCAUUUUAAGGGUA [A55G A117U C121A] | 2.31 |
| GUUAACGGUCAUAGGCCAUGGAAACUAGGAGCACCACCUCGCUGCCAGUGAAGAAAUGAACAAAGAAAAUCUGGGCCAGGCAGGCAUCAGAAGAAAUAGUCUUGCGCUCAACCAGAAAGCCCGUAAUCAUUUUAAGGGUA [U37C U38C A90G U120C U122C] | 0.57 |
| GUUAACGGUCAUAGGCCAUGGAACCUAGGAGCACCAUUUCGCUGCCAGUGAAGAAAUGGACAAAGAAAAUCUGGGCCAGGCAGGCAUCAAAAGAAAUAGUCUUGCGCUCAACCAGAAAGUCUGUAGUCAUUUUAAGGGUA [A24C A59G A126G] | 0.85 |
